The campaign covered roughly 44,000 compounds. About 340 (0.77%) were called active. About 5% were inconclusive and are not listed. The call rests on the fitted dose curve; in most records, active means well fitted inhibition curve with a large enough effect; inconclusive means small, poorly fitted or top-dose-only effect; inactive means flat fitted curve, though single readings scatter. The list shows a part of the results.
assay: Acumen qHTS Assay for Inhibitors of the mTORC1 Signaling Pathway in MEF (Tsc2-/-, p53-/-) Cells: Sytravon; conditions: phospho-rpS6 immunofluorescence/PI, 24 h; series mostly up to 38.3 µM; activity change, negative = inhibition: at the top concentration;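 further: plate controls were DMSO for no effect and rapamycin for full effect; nearly all actives have a fitted effect of over 50% in size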
Summary of the method: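 Tsc2-/-, p53-/- mouse embryonic fibroblasts (empty-vector line) exposed to compound 24 hrs at 37 C, fixed, immunostained for phospho-rpS6 and counterstained with propidium iodide. Acumen laser scanning gives % positive cells from Alexa 488/PI ratio, thresholded using 7.5 nM rapamycin; PI count gives viability.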

Structure (SMILES)	activity change, negative = inhibition
O=C(NCCc1ccccc1)c1ccc2c(c1)N(Cc1c(F)cccc1Cl)C(=O)CS2	inactive: -16.4%
Cc1ccc(N(CC(=O)Nc2cccc(F)c2)S(=O)(=O)c2cccs2)cc1	inactive: -5.2%
CNC(=O)C1CCC(Cn2c(=O)c3sccc3n(Cc3ccc(F)cc3)c2=O)CC1 (stereo unspecified)	inactive: -0.726%
CCc1ccc(NC(=O)CSc2nccn2-c2ccc(OC)cc2)cc1	inactive: -17.8%
CC1(C(=O)Nc2cccc(Br)c2)Cc2ccccc2C(=O)O1 (stereo unspecified)	inactive: -12.1%
CC(=O)N1CCCc2cc(S(=O)(=O)N3CCC(C(=O)NC4CCC(C)CC4)CC3)ccc21 (stereo unspecified)	inactive: -1.84%
COCCCNC(=O)CCC(=O)N1Cc2cccc(OC)c2Oc2ncccc21	inactive: -2.21%
CCn1c(C(=O)NCc2ccccc2C)cc2oc3ccccc3c21	inactive: -1.87%
COC(=O)c1ccccc1NC(=O)c1ncoc1-c1ccco1	inactive: 25.8%
CCCc1cc(=O)oc2c3c(ccc12)OCN(Cc1ccc(OC)cc1)C3	inactive: -7.35%
Cc1ccccc1OCCSc1nc2ccc(NC(=O)c3ccccc3)cc2s1	inactive: -2.3%
COC(=O)Cn1nc(C)c2c(C)n(-c3ccccc3)nc2c1=O	inactive: -2.13%
COc1cccc2c1cc1c(=O)n(CC(=O)NC3CCCCC3)nc(C)n12	inactive: 2.42%
Cc1ccc(C(=O)Nc2cccc(OCc3cc(=O)n4c5c(sc4n3)CCCC5)c2)cc1	inactive: -2.91%
COc1cc(C(=O)N2CCN(c3ccc(Nc4ccc(C)cc4)nn3)CC2)cc(OC)c1OC	inactive: -7.58%
NC(=O)CSc1oc(-c2ccco2)nc1S(=O)(=O)c1ccc(Cl)cc1	inactive: 3.04%
Cc1ccc(NC(=O)c2cc3cc(C)ccc3n2C)cc1	inactive: -1.67%
CCOC(=O)c1ccc(NC(=O)Cn2c(=O)cc(C)c3c(C)nn(-c4cccc(F)c4)c32)cc1	inactive: 6.21%
CCCc1cnc2c(c1SCC(=O)N1CCC(C)CC1)c(=O)n(C)c(=O)n2C	inactive: 0.132%
O=C(NCCc1ccccc1)c1sc2ncccc2c1-n1cccc1	inactive: -1.76%
CCC1CCCCN1C(=O)Cn1c(=O)oc2cc(S(=O)(=O)N3CCCCC3)ccc21 (stereo unspecified)	inactive: 0.659%
Cc1nn(Cc2ccccc2Cl)c(C)c1NC(=O)c1cc(C(C)C)on1	inactive: 11.1%
Cc1ccc(NC(=O)C(Cc2ccccc2)NS(=O)(=O)c2ccc3c(c2)oc(=O)n3C)cc1F (stereo unspecified)	inactive: 1.43%
O=C(Nc1nc2n(n1)C(c1ccc(F)cc1)C=C(c1ccccc1)N2)c1ccc(Cl)cc1 (stereo unspecified)	inactive: 1.24%

Structure (SMILES)	activity change, negative = inhibition
Clc1cccc(-n2ncc3c(N4CCC(Cc5ccccc5)CC4)ncnc32)c1	inactive: 6.67%
Cc1cc(C)cc(NC(=O)C(=O)NCC(c2cccnc2)N2CCc3ccccc3C2)c1 (stereo unspecified)	inactive: 3.66%
CCCCNC(=O)C1CCC(Cn2c(=O)c3sccc3n(CC(=O)N3CCCC3)c2=O)CC1 (stereo unspecified)	inactive: -11.3%
O=C(Nc1cc(C(F)(F)F)ccc1Cl)c1nc2ccccc2nc1N1CCCCC1	inactive: -7.52%
CCc1ccccc1NC(=O)c1sc2nc3c(cc2c1N)CN(Cc1ccccc1)CC3	inactive: -10.4%
CCOC(=O)c1c(C)oc2nc(C)nc(NCc3ccc(OC)cc3OC)c12	inactive: -5.69%
O=C(CSc1nncn2c1cc1sccc12)Nc1ccc(Br)cc1F	inactive: -2.48%
COC(=O)c1cccnc1-n1c(=O)c2cccnc2n(CC(=O)Nc2ccccc2F)c1=O	inactive: -5.12%
O=C(Cn1c(=O)nc(-c2ccccc2)c2ccccc21)NCc1ccc(Cl)cc1	inactive: -15.8%
CCc1ccc(NC(=O)CCn2nc(C)c(S(=O)(=O)N3CCCCC3)c2C)cc1	inactive: -0.567%
CCOc1ccccc1NC(=O)C1CCN(S(=O)(=O)c2ccc3c(c2)CC(C)N3C(C)=O)CC1 (stereo unspecified)	inactive: 1.29%
CCOc1ccc(Cn2c(CNS(=O)(=O)c3ccc(Cl)s3)nc3cccnc32)cc1	inactive: -24.7%
COc1cccc(N2CCN(S(=O)(=O)c3ccc(-n4cnnn4)cc3)CC2)c1	inactive: 0.106%
COc1ccc2c(C)cc(SCC(=O)Nc3nsc(-c4ccccc4C)n3)nc2c1	inactive: 2.97%
CCOC(=O)c1ccccc1NC(=O)Cn1c(=O)n(-c2cccc(C)c2)c(=O)c2c1c1cc(C)ccc1n2C	inactive: -1.7%
O=C(NCC(c1ccc2c(c1)OCO2)N1CCOCC1)c1cccc(Cl)c1 (stereo unspecified)	inactive: -2.52%
COc1cc(C2C(C(=O)Nc3ccccc3C)=C(C)Nc3ncnn32)ccc1OCC(N)=O (stereo unspecified)	inactive: -19%
Cc1ccc(NC(=O)CSc2ccc(-c3cccs3)nn2)cc1Cl	inactive: -4.26%
CN(c1ccccc1)S(=O)(=O)c1ccc(NC(=O)c2cc(=O)c3ccccc3o2)cc1	inactive: -5.82%
COCC(=O)NCc1nc2cccnc2n1Cc1ccc(F)cc1	inactive: 1.28%
Cc1oc(C)c2c(=O)cc(-c3ccc4c(c3)OCO4)cc(OC(=O)c3cccc(Br)c3)c12	inactive: 4.38%
O=C(CCn1cnnn1)Nc1ccc(F)cc1	inactive: 1.71%
COc1ccc(-n2ncc(C(=O)NCCc3ccsc3)c2C2CCN(C(=O)OC(C)(C)C)CC2)cc1	inactive: -0.188%
Cc1ccc(Cn2c(CNS(=O)(=O)c3ccc(F)c(Cl)c3)nc3cccnc32)cc1	inactive: -16.9%

Structure (SMILES)	activity change, negative = inhibition
Cc1noc(-c2ccc(N3CCCCC3)c([N+](=O)[O-])c2)n1	inactive: 0.355%
CC(=O)Nc1ccc2nc3c(=O)[nH]c(=O)[nH]c3nc2c1	inactive: -14.7%
Cc1ccccc1CCNC(=O)c1ccc2c(c1)nc1n2CCC(C)C1 (stereo unspecified)	inactive: 4.05%
COc1ccccc1C1Nc2ccccc2-n2c(-c3ccccc3)c3c(=O)n(C)c(=O)n(C)c3c21 (stereo unspecified)	inactive: 2.66%
COc1ccc(-c2noc(-c3ccc(N4CCN(c5ccccc5)CC4)c([N+](=O)[O-])c3)n2)cc1OC	inactive: -11.2%
CCOC(=O)C1(C)C=C(Nc2cccc(C(=O)O)c2)C(=O)N1c1cccc(C(=O)O)c1 (stereo unspecified)	inactive: 5.11%
CCCCc1nn2c(=O)cc(COC(=O)c3ccc(NC(=O)c4ccccc4C)cc3)nc2s1	inactive: 0%
Cc1ccc(CNS(=O)(=O)c2ccc3[nH]c4c(c3c2)CCCC4)cc1	inactive: -15.3%
Cc1cc(F)ccc1NS(=O)(=O)c1ccc(-n2cccn2)cc1	inactive: -4.64%
O=C1CS(=O)(=O)C2(C(=O)N(Cc3ccccc3)c3ccccc32)N1c1ccccc1 (stereo unspecified)	inactive: 2.24%
COc1ccc(OC)c(CNC(=O)Cc2ccc(NC(=O)N3CCSc4ncccc43)cc2)c1	inactive: 0.336%
Cc1ccc(CCNC(=O)c2ccc3c(c2)nc2n3CCC(C)C2)cc1 (stereo unspecified)	inactive: -15.1%
COc1cc2c(cc1OC)C(COc1ccccc1OC)N(C(=O)COc1ccc(Cl)cc1)CC2 (stereo unspecified)	inactive: -0.636%
Cc1cc(C)n(CCc2nc3c4ccccc4nc(N4CCN(c5ccccc5)CC4)n3n2)n1	inactive: -5.04%
COc1cccc(CNC(=O)C2CCCCN2S(=O)(=O)c2ccc(F)cc2)c1 (stereo unspecified)	inactive: -19.6%
Cc1ccc(S(=O)(=O)c2nnn3c2nc(N2CCN(c4ccccc4F)CC2)c2cc(Cl)ccc23)cc1C	inactive: -0.0789%
O=C(c1ccc2c(c1)N(Cc1cccc(F)c1)C(=O)c1ccccc1S2)N1CCOCC1	inactive: -7.5%
CC(=O)N1c2c(cc(Br)cc2S(=O)(=O)N2CCN(c3cc(C)ccc3C)CC2)CC1C (stereo unspecified)	inactive: 2.81%
Cc1ccccc1CN1C(=O)c2ccccc2S(=O)c2ccc(C(=O)NC3CCC(C)CC3)cc21 (stereo unspecified)	inactive: 0.763%
Cc1ccc(S(=O)(=O)c2nnn3c2nc(N2CCCC2)c2sccc23)cc1C	inactive: 0.497%
CC1=C(C#N)C(NC(=O)c2ccccc2Cl)(C(F)(F)F)C(=O)N1 (stereo unspecified)	inactive: -0.0651%
CCc1ccc(NC(=O)c2sc3nc(C)c(Cl)c(C)c3c2NC(=O)c2ccccc2OC)cc1	inactive: 7.45%
COc1ccc(OC)c(NC(=O)C2=C(C)C(=O)OC23CCCCCC3)c1	inactive: -7.39%
Cc1ccc(CN(C(=O)COc2ccc([N+](=O)[O-])cc2)c2ccccn2)cc1	inactive: -11.5%

Structure (SMILES)	activity change, negative = inhibition
CCN(CC)CCCNC(=O)c1cn(C)c2ccc(S(=O)(=O)N(C)C3CCCCC3)cc2c1=O	inactive: -0.323%
CCN(CC)CCCNC(=O)c1cnc(SC)nc1-c1ccccc1	inactive: -1.67%
Cc1ccc2c(=O)cc(C(=O)Nc3nc4ccc(Cl)cc4s3)oc2c1C	inactive: 3.97%
CCOCCc1nn2c(=O)cc(COC(=O)CNC(=O)c3cccc(C)c3)nc2s1	inactive: 0%
O=C(COc1ccc(Cl)cc1)Nc1nnc(S(=O)(=O)N2CCc3ccccc32)s1	inactive: 6.69%
COc1cccc(-c2ncnn2-c2sc3c(c2C#N)CCCCC3)c1OC	inactive: -0.579%
CCN(C(=O)CSc1nc2ncccc2[nH]1)c1ccc(C(C)C)cc1	inactive: -4.95%
COc1ccc(CNc2nc3c(-c4cccc(C)c4)nnn3c3ccccc23)cc1	inactive: 2.39%
Cc1nn(CC(=O)N2CCC(C)CC2)c(=O)c2cc3sccc3n12	inactive: -7.61%
CCOc1ccc(CCNC(=O)c2cn(C)c3ccc(S(=O)(=O)N4CCCCCC4)cc3c2=O)cc1OCC	inactive: -1.78%
CC(C)c1ccc(NC(=O)Cn2cc(S(=O)(=O)N3CCN(c4ccccc4F)CC3)c3ccccc3c2=O)cc1	inactive: -8.29%
COc1ccccc1NC(=O)c1c(NCc2ccc(OC)c(OC)c2OC)sc2c1CCC2	inactive: -14.6%
CCOC(=O)c1c(C)[nH]c(C)c1S(=O)(=O)N(C)CC(=O)N1CCN(c2ccccc2)CC1	inactive: -0.562%
Cc1cc(Cl)ccc1OCc1nc(-c2ccc(-n3cccc3)cc2)no1	inactive: 6.34%
CCCCOC(=O)c1ccc(NC(=O)c2cc3c(=O)n4cccc(C)c4nc3s2)cc1	inactive: 1.38%
CCOc1ccc(N2CC(c3nc4ccccc4n3CCCOc3ccccc3)CC2=O)cc1 (stereo unspecified)	inactive: -4.88%
Cc1c(C(=O)NCC(c2ccc(Cl)cc2)N2CCOCC2)oc2ccccc12 (stereo unspecified)	inactive: 1.54%
CCCNC(=O)CCc1nnc2ccc(N3CCN(c4cccc(OC)c4)CC3)nn12	inactive: -0.983%
CCCCN(C)CCNC(=O)c1c2c(nc3ccccc13)C(=O)N(C1CCCCC1)C2	inactive: 5.8%
CCC(=O)N1CCc2cc(Br)cc(S(=O)(=O)CCC(=O)NCCc3cccc(C)c3)c21	inactive: 1.81%
Cc1ccc(NC(=O)CCn2c(=O)c3cccn3c3ccccc32)cc1C	inactive: 2.13%
Cc1ccc(-n2c(=O)c3cccnc3n2CC(=O)Nc2ccc(Br)cc2)cc1C	inactive: -0.129%
CC(Oc1ccc(F)cc1)C(=O)N1CCC(c2nc3ccccc3s2)CC1 (stereo unspecified)	inactive: -10.3%
Cn1ncc2c(N3CCN(c4cccc(Cl)c4)CC3)ncnc21	inactive: 14%
